# Laboratory results published in paper PMC9911399, “Two distinct binding modes provide the RNA-binding protein RbFox with extraordinary sequence specificity”.
# Positions count from the first letter of the chain named. The list shows a part of the results.
# B1: CCCCGCA (DNA:RNA)
# RNA: GGGAGACCGGAAUUCAGAUUGUCCCCCCGCAUUAAAUCCCGUCGUAGCCACCA
# DNA 1: CAATCTGAATTCCGGTCTCCC
# DNA 2: TGGTGGCTACGACGGGATT
# B2: GGGUGGU (DNA:RNA)
# RNA: B1 RNA with C25G, C26G, C27G, C28U, C30G, A31U
# DNA 1: CAATCTGAATTCCGGTCTCCC
# DNA 2: TGGTGGCTACGACGGGATT
# B3: AUACGAG (DNA:RNA)
# RNA: B1 RNA with C25A, C26U, C27A, C30A, A31G
# DNA 1: CAATCTGAATTCCGGTCTCCC
# DNA 2: TGGTGGCTACGACGGGATT
# B4: AAGUUGG (DNA:RNA)
# RNA: GGGAGACCGGAAUUCAGAUUGUCCAAGUUGGUUAAAUCCCGUCGUAGCCACCA
# DNA 1: CAATCTGAATTCCGGTCTCCC
# DNA 2: TGGTGGCTACGACGGGATT
# B5: UCUAAAG (DNA:RNA)
# RNA: B4 RNA with A25U, A26C, G27U, U28A, U29A, G30A
# DNA 1: CAATCTGAATTCCGGTCTCCC
# DNA 2: TGGTGGCTACGACGGGATT
# B6: GAUCGGC (DNA:RNA)
# RNA: B4 RNA with A25G, G27U, U28C, U29G, G31C
# DNA 1: CAATCTGAATTCCGGTCTCCC
# DNA 2: TGGTGGCTACGACGGGATT
# B7: GUAGUGC (DNA:RNA)
# RNA: B4 RNA with A25G, A26U, G27A, U28G, G31C
# DNA 1: CAATCTGAATTCCGGTCTCCC
# DNA 2: TGGTGGCTACGACGGGATT
# B8: GUCUUGC (DNA:RNA)
# RNA: B4 RNA with A25G, A26U, G27C, G31C
# DNA 1: CAATCTGAATTCCGGTCTCCC
# DNA 2: TGGTGGCTACGACGGGATT
# B9: CUAAACC (DNA:RNA)
# RNA: B1 RNA with C26U, C27A, C28A, G29A, A31C
# DNA 1: CAATCTGAATTCCGGTCTCCC
# DNA 2: TGGTGGCTACGACGGGATT
# B10: UCGGUUA (DNA:RNA)
# RNA: B4 RNA with A25U, A26C, U28G, G30U, G31A
# DNA 1: CAATCTGAATTCCGGTCTCCC
# DNA 2: TGGTGGCTACGACGGGATT
# B11: CUAUACU (DNA:RNA)
# RNA: B1 RNA with C26U, C27A, C28U, G29A, A31U
# DNA 1: CAATCTGAATTCCGGTCTCCC
# DNA 2: TGGTGGCTACGACGGGATT
# B12: GCCUUUA (DNA:RNA)
# RNA: B1 RNA with C25G, C28U, G29U, C30U
# DNA 1: CAATCTGAATTCCGGTCTCCC
# DNA 2: TGGTGGCTACGACGGGATT
# B13: CUGACUA (DNA:RNA)
# RNA: B1 RNA with C26U, C27G, C28A, G29C, C30U
# DNA 1: CAATCTGAATTCCGGTCTCCC
# DNA 2: TGGTGGCTACGACGGGATT
# B14: UUAAAGG (DNA:RNA)
# RNA: B4 RNA with A25U, A26U, G27A, U28A, U29A
# DNA 1: CAATCTGAATTCCGGTCTCCC
# DNA 2: TGGTGGCTACGACGGGATT
# B15: GAUAUCU (DNA:RNA)
# RNA: B4 RNA with A25G, G27U, U28A, G30C, G31U
# DNA 1: CAATCTGAATTCCGGTCTCCC
# DNA 2: TGGTGGCTACGACGGGATT
# B16: CCCUGUC (DNA:RNA)
# RNA: B1 RNA with C28U, C30U, A31C
# DNA 1: CAATCTGAATTCCGGTCTCCC
# DNA 2: TGGTGGCTACGACGGGATT
# B17: CGAGGUU (DNA:RNA)
# RNA: B1 RNA with C26G, C27A, C28G, C30U, A31U
# DNA 1: CAATCTGAATTCCGGTCTCCC
# DNA 2: TGGTGGCTACGACGGGATT
# B18: UGACACG (DNA:RNA)
# RNA: B1 RNA with C25U, C26G, C27A, G29A, A31G
# DNA 1: CAATCTGAATTCCGGTCTCCC
# DNA 2: TGGTGGCTACGACGGGATT
# B19: AACCAAU (DNA:RNA)
# RNA: B4 RNA with G27C, U28C, U29A, G30A, G31U
# DNA 1: CAATCTGAATTCCGGTCTCCC
# DNA 2: TGGTGGCTACGACGGGATT
# B20: UCACACC (DNA:RNA)
# RNA: B1 RNA with C25U, C27A, G29A, A31C
# DNA 1: CAATCTGAATTCCGGTCTCCC
# DNA 2: TGGTGGCTACGACGGGATT
# B21: GGUGAAG (DNA:RNA)
# RNA: B4 RNA with A25G, A26G, G27U, U28G, U29A, G30A
# DNA 1: CAATCTGAATTCCGGTCTCCC
# DNA 2: TGGTGGCTACGACGGGATT
# B22: UGUGGAG (DNA:RNA)
# RNA: B4 RNA with A25U, A26G, G27U, U28G, U29G, G30A
# DNA 1: CAATCTGAATTCCGGTCTCCC
# DNA 2: TGGTGGCTACGACGGGATT
# B23: GAUCUGC (DNA:RNA)
# RNA: B4 RNA with A25G, G27U, U28C, G31C
# DNA 1: CAATCTGAATTCCGGTCTCCC
# DNA 2: TGGTGGCTACGACGGGATT
# B24: CGCCACA (DNA:RNA)
# RNA: B1 RNA with C26G, G29A
# DNA 1: CAATCTGAATTCCGGTCTCCC
# DNA 2: TGGTGGCTACGACGGGATT
# B25: GUGUUUG (DNA:RNA)
# RNA: B4 RNA with A25G, A26U, G30U
# DNA 1: CAATCTGAATTCCGGTCTCCC
# DNA 2: TGGTGGCTACGACGGGATT
# B26: UCUGCGC (DNA:RNA)
# RNA: B4 RNA with A25U, A26C, G27U, U28G, U29C, G31C
# DNA 1: CAATCTGAATTCCGGTCTCCC
# DNA 2: TGGTGGCTACGACGGGATT
# B27: UAGUAUC (DNA:RNA)
# RNA: B4 RNA with A25U, U29A, G30U, G31C
# DNA 1: CAATCTGAATTCCGGTCTCCC
# DNA 2: TGGTGGCTACGACGGGATT
# B28: UUCCGAC (DNA:RNA)
# RNA: B1 RNA with C25U, C26U, C30A, A31C
# DNA 1: CAATCTGAATTCCGGTCTCCC
# DNA 2: TGGTGGCTACGACGGGATT
# B29: CUAAAAC (DNA:RNA)
# RNA: B1 RNA with C26U, C27A, C28A, G29A, C30A, A31C
# DNA 1: CAATCTGAATTCCGGTCTCCC
# DNA 2: TGGTGGCTACGACGGGATT
# B30: CCAUAUG (DNA:RNA)
# RNA: B4 RNA with A25C, A26C, G27A, U29A, G30U
# DNA 1: CAATCTGAATTCCGGTCTCCC
# DNA 2: TGGTGGCTACGACGGGATT
# B31: CGAAAUA (DNA:RNA)
# RNA: B1 RNA with C26G, C27A, C28A, G29A, C30U
# DNA 1: CAATCTGAATTCCGGTCTCCC
# DNA 2: TGGTGGCTACGACGGGATT
# Target: T1, RBFOX1 RRM RbFoxmut (Fox-RRM*) (Homo sapiens, UniProt Q9NWB1 109-208, R118D;E147R;N151S;E152T)
# T1 sequence: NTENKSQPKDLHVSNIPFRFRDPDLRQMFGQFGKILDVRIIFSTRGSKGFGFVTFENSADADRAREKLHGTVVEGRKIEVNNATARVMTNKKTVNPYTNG
# Experiment: EMSA; HiTS-Eq, 1 nM pool, 10 min; buffer printed only for the single-RNA assays: 10 mM Tris pH 7.5, 150 mM NaCl, 3.4 mM EDTA, 0.001% NP-40, 30 C
# Settings: tags: His6 N-terminal (pET28a); label: 5' 32P
# In short: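 Purified RbFox RRM (wild type or mutant) was equilibrated for 10 min in 50 µL with 1 nM of a 5′-radiolabelled pool of RNA with 7 randomized nucleotides, its flanks annealed to DNA oligonucleotides, across increasing protein concentrations. Free RNA was separated by 8% native PAGE, excised, reverse-transcribed, PCR-barcoded and sequenced on an Illumina HiSeq 2500. Relative association constants came from read-count changes of each variant against the control reaction, normalised to the cognate motif.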
row,Binder,binding signal
1,B1,0.118 KA relative to UGCAUGU
2,B2,0.133 KA relative to UGCAUGU
3,B3,0.139 KA relative to UGCAUGU
4,B4,0.0994 KA relative to UGCAUGU
5,B5,0.122 KA relative to UGCAUGU
6,B6,0.108 KA relative to UGCAUGU
7,B7,0.174 KA relative to UGCAUGU
8,B8,0.502 KA relative to UGCAUGU
9,B9,0.0479 KA relative to UGCAUGU
10,B10,0.115 KA relative to UGCAUGU
11,B11,0.11 KA relative to UGCAUGU
12,B12,0.0986 KA relative to UGCAUGU
13,B13,0.0905 KA relative to UGCAUGU
14,B14,0.0815 KA relative to UGCAUGU
15,B15,0.0914 KA relative to UGCAUGU
16,B16,0.194 KA relative to UGCAUGU

row,Binder,binding signal
1,B17,0.0909 KA relative to UGCAUGU
2,B18,0.121 KA relative to UGCAUGU
3,B19,0.0598 KA relative to UGCAUGU
4,B20,0.0564 KA relative to UGCAUGU
5,B21,0.0796 KA relative to UGCAUGU
6,B22,0.15 KA relative to UGCAUGU
7,B23,0.0664 KA relative to UGCAUGU
8,B24,0.103 KA relative to UGCAUGU
9,B25,0.68 KA relative to UGCAUGU
10,B26,0.12 KA relative to UGCAUGU
11,B27,0.183 KA relative to UGCAUGU
12,B28,0.0861 KA relative to UGCAUGU
13,B29,0.0627 KA relative to UGCAUGU
14,B30,0.123 KA relative to UGCAUGU
15,B31,0.102 KA relative to UGCAUGU
